Assay results published in the supplement of paper PMC12217912.
Some of the results follow. Sequences were assembled here from the parent chain. Inactive controls read about 0.05.

B1: TEV protease; numbered along this chain (parent)
chain: MGESLFKGPRDYNPISSSICHLTNESDGHTTSLYGIGFGPFIITNKHLFRRNNGTLVVQSLHGVFKVKDTTTLQQHLVDGRDMIIIRMPKDFPPFPQKLKFREPQREERICLVTTNFQTKSMSSMVSDTSCTFPSGDGIFWKHWIQTKDGQCGSPLVSTRDGFIVGIHSASNFTNTNNYFTSVPKNFMELLTNQEAQQWVSGWRLNADSVLWGGHKVFMVKPEEPFQPVKEATQL

Variants of: B1
Experiment: raw area under fraction-flipped curve 0-4 h after induction (AUC4h, not background-subtracted), DNA-recorder readout of cleavage of the substrate (dimensionless); higher = more cleavage of the substrate by the protease variant
Conditions: temperature: 34 °C; time window: 0-4 h after rhamnose induction
Experimental: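 In vivo DNA recorder in E. coli TOP10(DE3) ΔrhaA at 34 °C. Each TEVp single-site mutant (parent TEVp 0) is paired with a single-site variant of the 7-mer TEVs (canonical ENLYFQ|S). The substrate sits between flexible linkers in a Bxb1-sfGFP-TEVs-SsrA fusion, so cleavage stabilises Bxb1 and speeds flipping of a recombination array, read by NGS. The value is the raw area under the fraction-flipped curve over 0-4 h after rhamnose induction (AUC4h), with ≥20 reads per time point. It is not background-subtracted; inactive controls average about 0.047.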
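Note: Bxb1 expression induced with 0.2% (w/v) L-rhamnose at OD600 near 0.5, cultures sampled hourly, flipped fraction per protease–substrate barcode pair counted by paired-end Illumina sequencing.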

MGESLFKGPRDYNPISSSICHLTNESDGHTTSLYGIGFGPFIITNKHLFRRNNGTLVVQSLHGVFKVKDTTTLQQHLVDGRDMIIIRMPKDFPPFPQKLKFREPQREERICLVTTNFQTKSMSSMVSDTSCTFPSGDGIFWKHWIQTKDGQCGSPLVSTRDGFTVGIHSASNFTNTNNYFTSVPKNFMELLTNQEAQQWVSGWRLNADSVLWGGHKVFMVKPEEPFQPVKEATQL [I164T]
area with substrate ENLYFQA: 0.0875 | area with substrate ENLYFQC: 0.0771 | area with substrate ENLYFQG: 0.0813 | area with substrate ENLYFQH: 0.0649 | area with substrate ENLYFQI: 0.0592 | area with substrate ENLYFQL: 0.0552 | area with substrate ENLYFQM: 0.0652 | area with substrate ENLYFQN: 0.053 | area with substrate ENLYFQR: 0.0586 | area with substrate ENLYFQS: 0.0771 | area with substrate ENLYFQT: 0.0538 | area with substrate ENLYFQV: 0.054 | area with substrate ENLYFQW: 0.0665 | area with substrate ENLYFQY: 0.0593

MGESLFKGPRDYNPISSSICHLTNESDGHTTSLYGIGFGPFIITNKHLFRRNNGTLVVQSLHGVFKVKDTTTLQQHLVDGRDMIIIRMPKDFPPFPQKLKFREPQREERICLVTTNFQTKSMSSMVSDTSCTFPSGDGIFWKHWIQTKDGQCGSPLVSTRDGFPVGIHSASNFTNTNNYFTSVPKNFMELLTNQEAQQWVSGWRLNADSVLWGGHKVFMVKPEEPFQPVKEATQL [I164P]
area with substrate ENLYFQA: 0.0356 | area with substrate ENLYFQC: 0.0459 | area with substrate ENLYFQD: 0.0376 | area with substrate ENLYFQF: 0.0528 | area with substrate ENLYFQG: 0.0449 | area with substrate ENLYFQH: 0.0426 | area with substrate ENLYFQI: 0.0524 | area with substrate ENLYFQL: 0.067 | area with substrate ENLYFQM: 0.047 | area with substrate ENLYFQN: 0.0585 | area with substrate ENLYFQR: 0.0491 | area with substrate ENLYFQS: 0.053 | area with substrate ENLYFQT: 0.0608 | area with substrate ENLYFQW: 0.0623 | area with substrate ENLYFQY: 0.0598

MGESLFKGPRDYNPISSSICHLTNESDGHTTSLYGIGFGPFIITNKHLFRRNNGTLVVQSLHGVFKVKDTTTLQQHLVDGRDMIIIRMPKDFPPFPQKLKFREPQREERICLVTTNFQTKSMSSMVSDTSCTFPSGDGIFWKHWIQTKDGQCGSPLVSTRDGFWVGIHSASNFTNTNNYFTSVPKNFMELLTNQEAQQWVSGWRLNADSVLWGGHKVFMVKPEEPFQPVKEATQL [I164W]
area with substrate ENLYFQA: 0.0475 | area with substrate ENLYFQK: 0.0453 | area with substrate ENLYFQL: 0.0461 | area with substrate ENLYFQM: 0.0603 | area with substrate ENLYFQN: 0.0533 | area with substrate ENLYFQP: 0.0571 | area with substrate ENLYFQR: 0.0567 | area with substrate ENLYFQS: 0.0575 | area with substrate ENLYFQV: 0.0595 | area with substrate ENLYFQW: 0.0371

MGESLFKGPRDYNPISSSICHLTNESDGHTTSLYGIGFGPFIITNKHLFRRNNGTLVVQSLHGVFKVKDTTTLQQHLVDGRDMIIIRMPKDFPPFPQKLKFREPQREERICLVTTNFQTKSMSSMVSDTSCTFPSGDGIFWKHWIQTKDGQCGSPLVSTRDGFYVGIHSASNFTNTNNYFTSVPKNFMELLTNQEAQQWVSGWRLNADSVLWGGHKVFMVKPEEPFQPVKEATQL [I164Y]
area with substrate ENLYFQA: 0.0667 | area with substrate ENLYFQD: 0.0474 | area with substrate ENLYFQG: 0.0449 | area with substrate ENLYFQI: 0.0536 | area with substrate ENLYFQK: 0.0662 | area with substrate ENLYFQL: 0.0514 | area with substrate ENLYFQM: 0.0532 | area with substrate ENLYFQN: 0.0514 | area with substrate ENLYFQR: 0.0474 | area with substrate ENLYFQS: 0.0529 | area with substrate ENLYFQV: 0.0503 | area with substrate ENLYFQW: 0.0499 | area with substrate ENLYFQY: 0.0508

MGESLFKGPRDYNPISSSICHLTNESDGHTTSLYGIGFGPFIITNKHLFRRNNGTLVVQSLHGVFKVKDTTTLQQHLVDGRDMIIIRMPKDFPPFPQKLKFREPQREERICLVTTNFQTKSMSSMVSDTSCTFPSGDGIFWKHWIQTKDGQCGSPLVSTRDGLIVGIHSASNFTNTNNYFTSVPKNFMELLTNQEAQQWVSGWRLNADSVLWGGHKVFMVKPEEPFQPVKEATQL [F163L]
area with substrate ENLYFQA: 0.12 | area with substrate ENLYFQC: 0.0937 | area with substrate ENLYFQD: 0.07 | area with substrate ENLYFQI: 0.0586 | area with substrate ENLYFQK: 0.0438 | area with substrate ENLYFQL: 0.0696 | area with substrate ENLYFQN: 0.0883 | area with substrate ENLYFQR: 0.0567 | area with substrate ENLYFQS: 0.106 | area with substrate ENLYFQT: 0.0678 | area with substrate ENLYFQV: 0.0845 | area with substrate ENLYFQW: 0.0769

MGESLFKGPRDYNPISSSICHLTNESDGHTTSLYGIGFGPFIITNKHLFRRNNGTLVVQSLHGVFKVKDTTTLQQHLVDGRDMIIIRMPKDFPPFPQKLKFREPQREERICLVTTNFQTKSMSSMVSDTSCTFPSGDGIFWKHWIQTKDGLCGSPLVSTRDGFIVGIHSASNFTNTNNYFTSVPKNFMELLTNQEAQQWVSGWRLNADSVLWGGHKVFMVKPEEPFQPVKEATQL [Q151L]
area with substrate ENLYFQA: 0.0785 | area with substrate ENLYFQC: 0.0976 | area with substrate ENLYFQD: 0.0813 | area with substrate ENLYFQE: 0.0626 | area with substrate ENLYFQG: 0.0781 | area with substrate ENLYFQI: 0.0475 | area with substrate ENLYFQK: 0.0486 | area with substrate ENLYFQN: 0.076 | area with substrate ENLYFQP: 0.0384 | area with substrate ENLYFQQ: 0.0583 | area with substrate ENLYFQR: 0.0573 | area with substrate ENLYFQS: 0.0852 | area with substrate ENLYFQT: 0.0735 | area with substrate ENLYFQV: 0.0613 | area with substrate ENLYFQY: 0.0572

MGESLFKGPRDYNPISSSICHLTNESDGHTTSLYGIGFGPFIITNKHLFRRNNGTLVVQSLHGVFKVKDTTTLQQHLVDGRDMIIIRMPKDFPPFPQKLKFREPQREERICLVTTNFQTKSMSSMVSDTSCTFPSGDGIFWKHWIQTKDGICGSPLVSTRDGFIVGIHSASNFTNTNNYFTSVPKNFMELLTNQEAQQWVSGWRLNADSVLWGGHKVFMVKPEEPFQPVKEATQL [Q151I]
area with substrate ENLYFQA: 0.0878 | area with substrate ENLYFQC: 0.0953 | area with substrate ENLYFQD: 0.0687 | area with substrate ENLYFQE: 0.0592 | area with substrate ENLYFQG: 0.0964 | area with substrate ENLYFQH: 0.0696 | area with substrate ENLYFQK: 0.071 | area with substrate ENLYFQL: 0.0522 | area with substrate ENLYFQP: 0.0605 | area with substrate ENLYFQR: 0.0574 | area with substrate ENLYFQS: 0.0836 | area with substrate ENLYFQT: 0.0541 | area with substrate ENLYFQW: 0.0619 | area with substrate ENLYFQY: 0.0753

MGESLFKGPRDYNPISSSICHLTNESDGHTTSLYGIGFGPFIITNKHLFRRNNGTLVVQSLHGVFKVKDTTTLQQHLVDGRDMIIIRMPKDFPPFPQKLKFREPQREERICLVTTNFQTKSMSSMVSDTSCTFPSGDGIFWKHWIQTKDGCCGSPLVSTRDGFIVGIHSASNFTNTNNYFTSVPKNFMELLTNQEAQQWVSGWRLNADSVLWGGHKVFMVKPEEPFQPVKEATQL [Q151C]
area with substrate ENLYFQA: 0.096 | area with substrate ENLYFQC: 0.0977 | area with substrate ENLYFQD: 0.0682 | area with substrate ENLYFQE: 0.0486 | area with substrate ENLYFQG: 0.105 | area with substrate ENLYFQH: 0.0701 | area with substrate ENLYFQI: 0.0552 | area with substrate ENLYFQK: 0.0575 | area with substrate ENLYFQL: 0.0576 | area with substrate ENLYFQM: 0.0718 | area with substrate ENLYFQN: 0.0891 | area with substrate ENLYFQP: 0.0526 | area with substrate ENLYFQR: 0.0467 | area with substrate ENLYFQS: 0.0924 | area with substrate ENLYFQT: 0.0717 | area with substrate ENLYFQY: 0.0527

MGESLFKGPRDYNPISSSICHLTNESDGHTTSLYGIGFGPFIITNKHLFRRNNGTLVVQSLHGVFKVKDTTTLQQHLVDGRDMIIIRMPKDFPPFPQKLKFREPQREERICLVTTNFQTKSMSSMVSDTSCTFPSGDGIFWKHWIQTKDGQCGSPLVSTRDGFIVNIHSASNFTNTNNYFTSVPKNFMELLTNQEAQQWVSGWRLNADSVLWGGHKVFMVKPEEPFQPVKEATQL [G166N]
area with substrate ENLYFQA: 0.0419 | area with substrate ENLYFQC: 0.049 | area with substrate ENLYFQH: 0.0504 | area with substrate ENLYFQI: 0.0477 | area with substrate ENLYFQL: 0.0483 | area with substrate ENLYFQM: 0.0532 | area with substrate ENLYFQR: 0.0565 | area with substrate ENLYFQS: 0.0506 | area with substrate ENLYFQT: 0.0593 | area with substrate ENLYFQV: 0.0537 | area with substrate ENLYFQW: 0.0557
